Nonsense suppression data for 27 variants are collected here from the RNAGym collection of RNA variant scans (doi:10.1101/gad.245936.114).

B1: tRNA (parent)
chain: CUCUCGGUAGCCAAGUUGGUUUAAGGCGCAAGACUUUAAUUUAUCACUACGAAAUCUUGAGAUCGGGCGUUCGACUCGCCCCCGGGAGAUUUUUUCCUCGAGCAA

Variants at the floor of the assay are shown more often than the library holds them.

This series covers variants of B1. Kind of series: nonsense suppression (GFP-seq) (ratio to wild type); higher = more function; SUP4oc tRNA, yeast GFP reporter sort-seq. In a few lines: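 Sorted GFP/RFP bins of yeast were each Illumina-sequenced with a phred ≥30 cutoff; the cells held a genome-integrated ochre-suppressor tRNA variant from a library with ~3% random mutations, a galactose-driven GFP ochre reporter, and RFP. Culture was in raffinose/galactose medium containing 80 mg/L adenine. Nonsense suppression, termed GFPSEQ, is the median GFP/RFP of the bins weighted by each variant's estimated cell share per bin, relative to the unmutated parent tRNA, for variants reaching ≥100 reads and ≥30 cells.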
Turning to CUCUCGGUAGCCAAGUUGCUCUAAGGCGCAAGACUUUAAUUUAUCACUACGAAAUCUUGAGAUCGCGCGUUCGACUCGCCCCCAGAAGAUUUUUUCCUCGAGCAA [G19C U21C G66C G84A G86A], the nonsense suppression was at most 0.026.
With CUCUCGGUAGCCAAGUUGGUGUAAGGCGCAAAACUUUAAUUUAUCACUACGAAAUCUUGAGAUCGGGCGUUCGACUCGCCCCCGGGAGAUUUUUUCCUCGAGCAA [U21G G32A], the nonsense suppression is at most 0.026.
CUCUCGGUAGCCAAGUUGCUUUAAGGCGCAAGACUUUAAUUUAUCACUACGAAAUCUUGAGAUCGGGCGUUCUACUCGCCCCCGGGAGAUUUUUUCCUCGAGCAA [G19C G73U]: the nonsense suppression is at most 0.026.
Under CUCUCGGUAGCCAAGUUGGUUUAAGGCGCAAGACUUUAAUUUAUCACUACGAAGUCUUGAGAUCGGGCGUUCGACUCGCCCCCGGUAGAUUUUUUCCUCGAGCAA [A54G G86U] stands at most 0.026; under CUCUCGGUAGCCAAGUUGGUUUAAGGCGCAAGACUUUAAUUUAUCACUACGAAAUCUAGAGAUCGGGCGUUCGCCUCGCCCCCGGGAGAUUUUUUCCUCGAGCAA [U58A A74C], at most 0.026.
The value for CUCUCGCUACCCAAGUUGGUUUAAGGCGCAAGCCUUUAAUUUAUCACUACGAAAUCUUGAGAUCGGGCGUUCGAAUCGCCCCCGGGAGAUUUUUUCCUCGAGCAA [G7C G10C A33C C75A] was at most 0.026; that for CUCUCGGUGGCCAGGUUGGUUUAAGGCGCAAGACUUUAAUUUAUCACUACGAAAUCUUGAGAUCGGGCGUUCGACUCGCCCCCGGGAGAUUUUUUCCUCGAGCAA [A9G A14G] was 0.0311; that for CUCUCGGUAGCCAAGUUGGUUUAAGGCGCCAGACUUUAAUUUAUCACUACGAAAUCUUUAGAUCGGGCGUUCGACUCGCCCCCGGGAGAUUUUUUCCUCGAGCAA [A30C G59U] was at most 0.026.
The value for CUGUCGGUAGCCAAAUUGCUUUAAGGCGCAAGACUUUAAUUUAUCACUACGAAUUCGUGAGAUCGGGCGUUCGGCUCGCCCCCGGGAGAUUUUUUCCUCGAGCAA [C3G G15A G19C A54U U57G A74G] was at most 0.026; that for CUCUCGGUAGCCAAGUUGGUUUAAGGCGCAAGACUUUAAUUUAUCACUACGAAAUCUUGAGAUAUGGCGUUCGACUCGCCCCCGCGAGAUUUUUUCCUCGAGCAA [C64A G65U G85C] was at most 0.026; that for CUCUCGGUAGCCAAGUUGAAUUAAGGCGCAAGACUUUAAUUUAUCACUACGAAAUCUUGAGAUCGGGCGUUCGACUCGCCCCCCGGAGAUUUUUUCCUCGAGCAA [G19A U20A G84C] was at most 0.026.
Turning to CUUUCGGUAACGAAGUUGGUUUAAGGCGCAAGACUUUAAUUUAUCACUACGAAAUCUUGAAAUCGGGCGAACCACUCGCCCCCGGGAGAUUUUUUCCUCGAGCAA [C3U G10A C12G G61A U70A U71A G73C], the nonsense suppression was at most 0.026.
On to CUCUCGGUAGCCAAGUUGGUUUAAGGCGCCAGACUUUAAUUUAUCACUACGAAACCUUGAGAUCGGUCGUUCGACUCGGCCCCGGGAGAUUUUUUCCUCGAGCAA [A30C U55C G67U C79G], for which the nonsense suppression is at most 0.026.
Under CUCUCGGUAGCCAAGUUGGUUUAAGGCACAAGACGUUAAUUUAUCACUACGAAAUCUUGAGAUCUGGCGUUCAACUCGCUCCCGGGAGAUUUUUUCCUCGAGCAA [G28A U35G G65U G73A C80U] stands at most 0.026; under CUCUCGGUAGCCAAGUUGGUUUAAGUCGCAAGACUUUAAUUUAUCACUACGAAAUCUUAAGAUCGGGCGUUCGACUCGCCCCCGGGAGAUUUUUUCCUCGAGCAA [G26U G59A], at most 0.026.
CCCUCGGUAGCCAAGUUGGUUUACGGCGCAAGCCUUUAAUUUAUCACUACGAAAUCUUGAGAUCGGGCGUUCGACUCGCCCACGGGUGAUUUUUUCCUCGAGCAA [U2C A24C A33C C82A A87U]: the nonsense suppression is at most 0.026.
Consider CUCUCGGUGCCCAAGUUGGUUUAAGGCGCAAGACUUUAAUUUAUCACUACGAAAUCUUGAGAUCGGGCGUUCGACUCGCCCCCGGGAGAUUUUUUCCUCGAGCAA [A9G G10C], for which the nonsense suppression was at most 0.026.
Consider CUCUCGGUAGCCAAGUUGGUUUAAGGCGCAAGACUUUAAUUUAUCACUACGAAAUCUUGAGAACGGGCGUUCGCCUCGCCCCCGGGAGAUUUUUUCCUCGAGCAA [U63A A74C], for which the nonsense suppression was at most 0.026.
For CUCUCGGUAGGCAAGUUGGUUUAAGGCGCAAGACUUUAAUUUAUCACUACGAAAUCUUGAGAUCGGGCGUUCUACUCGCGCCCGGGAGAUUUUUUCCUCGAGCAA [C11G G73U C80G], the nonsense suppression was at most 0.026.
For CUCUAGGUCGCCAAGUUCGUCUAAGACGCAAGACUUUAAUUUAUCACUACGAAAUCUUCAGAUCGGGCGUUCGACUCGCCCCCGGGAGAUUUUUUCCUCGAGCAA [C5A A9C G18C U21C G26A G59C], the nonsense suppression was at most 0.026.
As to CUCGCGUUAGCCAAGUUGGUUUAAGGCGCAAGACUUUAAUUUAUCACUACGAAAUCUUGAGAUCGGGCGUUCGACUCGCCCCCGGGAGAUUUUUUCCUCGAGCAA [U4G G7U], the nonsense suppression is at most 0.026.
The value for AUCUCGGUAGCCAAGUUGGUUUAAGGCGCAAGACUUUAAUUUAUCACUACGAAAUCUUGAGAUCGGGCGGUCGACUCGCCCCCGGGAGAUUUUUUCCUCGAGCAA [C1A U70G] was at most 0.026.
Under CUCUCGGUAGCCAAGUUGGUUUAAGGCGCAAGACUUUAAUUUAUCACUACGAAAACUUGAGAUCGGGCGUACGACUCGACCCCGGGAGAUUUUUUCCUCGAGCAA [U55A U71A C79A] stands at most 0.026; under CUCUCGGUAGCCAAGUUGGUUUAGGGCGAAAGACUUUAAUUUAUCACUACGAAAUCUUGAGAUCGUGCGUUCGACUCGCCCCCGGGAGAUUUUUUCCUCGAGCAA [A24G C29A G66U], at most 0.026; under CUCUCUGUAGCCAAGUUGGUUUAAGCCGCAGGACUUUAAUUUAUCACUACGAAAUCUUGAGAUCGGGCGUUCGACUCGCCCCCGCGAGAUUUUUUCCUCGAGCAA [G6U G26C A31G G85C], at most 0.026.
Take UUCUCGGUAGCCAAGUUGGUUUAAGGCGCAAGACUUUAAUUUAUCACUACGAAAUCUUGAGAUCGGGCGAUCGACUCGCCCCCGGGAGAUUUUUUCCUCGAGCAA [C1U U70A]: the nonsense suppression is at most 0.026.
Under CUCUCGCUCGCCAACGUGGUUUAAGGCGCAAGACUUUAAUUUAUCACUACGAAAUCUUGAGAUCGGGCGUUUGACUCGCCCCCGGGAGAUUUUUUCCUCGAGCAA [G7C A9C G15C U16G C72U] stands at most 0.026.
